# Measurements published in PubChem BioAssay AID485344 (National Center for Advancing Translational Sciences (NCATS), 2010).
# About 6,900 (2%) of roughly 340,000 compounds were called active. Cut-off read from the data, not from the text of the source: active = inhibition above about 30%; inactive = below that, where a call was filed. The entries are a selection whose mix differs from that of the whole data set. The source gives no active or inactive call for entries shown without one.
# Molecular target: D(2) dopamine receptor (Homo sapiens) (UniProt P14416)
# Assay: HTS Assay for Allosteric Antagonists of the Human D2 Dopamine Receptor: Primary Screen for Antagonists; note: 0% is about no effect
# Settings: HEK293 TREx D2 cells, calcium flux, dopamine EC80; at 10 µM; stronger effect = higher value
# Summary of the method: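 Cells plated overnight at 30 C with tetracycline; no-wash calcium dye, 30–90 min RT; 10 s baseline; compound pinned; 180 s read; EC80 dopamine added; another 180 s read.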
# UniProt P14416, sequence (P14416 whole entry, looked up): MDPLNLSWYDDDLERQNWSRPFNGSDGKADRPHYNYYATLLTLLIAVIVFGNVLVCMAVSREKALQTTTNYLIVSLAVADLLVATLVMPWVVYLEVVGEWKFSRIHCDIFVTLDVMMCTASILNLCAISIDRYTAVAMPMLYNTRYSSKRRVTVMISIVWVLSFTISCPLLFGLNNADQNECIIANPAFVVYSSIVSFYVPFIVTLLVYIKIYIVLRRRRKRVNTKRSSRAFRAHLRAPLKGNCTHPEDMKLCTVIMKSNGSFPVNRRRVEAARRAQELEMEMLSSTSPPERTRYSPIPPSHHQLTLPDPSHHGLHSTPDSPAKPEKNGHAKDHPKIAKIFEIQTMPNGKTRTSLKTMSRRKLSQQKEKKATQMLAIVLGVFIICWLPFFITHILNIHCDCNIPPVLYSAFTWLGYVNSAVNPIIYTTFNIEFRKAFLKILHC
row,SMILES,inhibition
1,O=C(NCc1ccc(F)cc1)c1ccc(CSc2nc3ccncc3n2Cc2ccc(F)cc2)cc1,18.2%
2,CCOC(=O)c1c(Nc2cccc(O)c2)nnc(-c2ccccc2)c1-c1ccccc1,-21.2%
3,COc1ccc(C(=O)N(Cc2sccc2C)C2CCS(=O)(=O)C2)cc1Cl (configuration not stated),6.51%
4,Cc1cc(=O)n2c(C(=O)Nc3ccc(C)c(Cl)c3)c(C(=O)Nc3ccccc3)sc2n1,-9.02%
5,CCN1CCN(C(=O)c2ccc3c(c2)N(Cc2ccc(Cl)cc2)C(=O)c2ccccc2S3(=O)=O)CC1,8.9%
6,Cc1cc(C)c(S(=O)(=O)Nc2cc(-c3cn4ccccc4n3)ccc2C)cc1C,-11.8%
7,O=C(NCc1ccc2c(c1)OCO2)c1ccc2c(c1)N(Cc1cccc(Cl)c1)C(=O)c1ccccc1S2,21.1%
8,Cc1ccc(C(=O)c2sc(Nc3ccccc3F)c(S(=O)(=O)c3ccccc3)c2N)c(C)c1,-11.5%
9,O=C(Cn1ncc2c([nH]c3ccccc32)c1=O)Nc1cc(F)ccc1F,-13.7%
10,Cc1cccc(N2CCN(C(=O)C3CCN(S(=O)(=O)c4c(C)noc4/C=C/c4ccccc4F)CC3)CC2)c1C,6%
11,CCC1CN(S(=O)(=O)c2cc(-c3cc(C)no3)ccc2OC)c2cc(C)ccc2O1 (configuration not stated),-1.16%
12,COc1ccc(OC)c(CNC(=O)C2CCN(S(=O)(=O)c3cn(C)cn3)CC2)c1,7.48%
13,COc1cc(Cl)c(C)cc1NC(=O)c1cc(CN2CCOCC2)on1,0.249%
14,CCc1ccc(NC(=O)CCS(=O)(=O)c2ccc3c(c2)CCN3C(C)=O)cc1,12.3%
15,CCc1ccccc1NC(=O)Nc1cc(C(=O)NCc2ccc(C(C)C)cc2)ccc1N1CCCC1,13.8%
16,Cc1cc(NC(=O)c2ccc3c(c2)N(Cc2cccc(Cl)c2)C(=O)c2ccccc2S3=O)ccc1Br (configuration not stated),-2.2%
17,Cc1ccc(S(=O)(=O)c2cn(Cc3ccccc3F)c3cc4c(cc3c2=O)OCO4)cc1,-16.6%
18,Clc1ncc(CN2CCN(c3ccccc3)CC2)s1,active: 83.7%
19,CC1CCCN(Cc2c(O)ccc3c(=O)c(Oc4ccccc4Cl)c(C(F)(F)F)oc23)C1 (configuration not stated),-7.54%
20,O=C(NCCCN1CCN(c2ccccc2F)CC1)C1CCN(S(=O)(=O)c2cccs2)CC1,active: 74.7%
21,COc1cccc(N2CCN(C(=O)c3cccc(NC(=O)c4nsc5ccccc45)c3)CC2)c1,12.2%
22,COc1cc(CN(C(=O)c2ccccc2[N+](=O)[O-])c2ccccn2)cc(OC)c1OC,2.85%
23,Cc1ccc(C)c(NC(=O)CSc2nc(=O)n(CCN(C)C)c3c2CCC3)c1,-17.2%

row,SMILES,inhibition
1,Cc1sc2c(c1C)c(=O)n(CCc1ccccc1)c(=O)n2Cc1ccccc1Cl,1.4%
2,N#Cc1ccccc1NC(=O)c1cc2c(=O)n3ccccc3nc2s1,-3.56%
3,CC1CCN(S(=O)(=O)c2ccc3c(c2)N(CC(=O)NCCCN2CCCCC2C)C(=O)CS3)CC1 (configuration not stated),-21.8%
4,COc1ccc(CCNC(=O)C2=C(C)C(=O)OC23CCCCC3)c(OC)c1OC,-1.49%
5,CCN(CC)S(=O)(=O)c1ccc2c(c1)nc(CN(C)C(=O)c1cccc(Cl)c1)n2C,-6.1%
6,OC(COc1ccccc1)CN1CCN(c2ncccn2)CC1 (configuration not stated),active: 38.7%
7,CCOc1ccc(C(=O)Nc2nnc(SCc3cc(=O)c4cc(C)ccc4[nH]3)s2)cc1,2.4%
8,COc1cccc2sc(N(Cc3cccnc3)C(=O)COc3ccccc3)nc12,4.62%
9,CC1(C(=O)NC(=S)NNC(=O)c2ccncc2)CCCCC1,active: 34.1%
10,Cc1nn(-c2ccccc2)c(OC(=O)c2ccccc2F)c1S(=O)(=O)c1ccccc1,-1.17%
11,COCCCNC(=O)CCn1c(=O)c2ccccc2n(CC(=O)Nc2c(C)cc(C)cc2C)c1=O,-9.66%
12,Cc1ccc(-n2c(=O)c3cccnc3n2CC(=O)Nc2cccc(C)c2C)cc1,5.87%
13,CC(C)c1ccc(OC(=O)c2cc(-c3ccc4c(c3)OCCO4)on2)cc1,14.8%
14,COc1ccc(CCNC(=O)CSc2ncc3c(n2)-c2cc(Cl)ccc2N(Cc2ccccc2)S3(=O)=O)cc1OC,-11.2%
15,Cc1ccc(CNC(=O)c2nc(SCc3ccc(C)cc3)ncc2Cl)cc1,-13.2%
16,Cc1ccc(C)c(N2CCN(CC3CCCCC3)CC2)c1,active: 62.2%
17,CC(C)c1ccc(NC(=O)CSC2=Nc3ccccc3C3=NC(CC(=O)NCc4ccc(F)cc4)C(=O)N23)cc1 (configuration not stated),19.6%
18,CCc1ccccc1NC(=O)Cn1c(=O)c2cccn2c2ccc(F)cc21,0.457%
19,COc1ccc(CNC(=O)c2ccc3c(c2)N(Cc2cccc(Cl)c2)C(=O)c2ccccc2S3)c(OC)c1,4.43%
20,CCCCn1c2ccc(F)cc2c2nnc(SCCN3CCCCC3)nc21,0.0171%
21,Cc1ccc(OCC(=O)NCC(=O)OCc2cc(=O)n3nc(C)sc3n2)cc1,4.71%
22,CCOC(=O)C1CCN(S(=O)(=O)c2cc(-c3onc(C)c3C)ccc2OC)CC1,-5.48%
23,Cc1ccc(Cl)cc1N1CCN(C(=O)C2CCCN(S(=O)(=O)c3ccc(Br)s3)C2)CC1 (configuration not stated),-12.2%

row,SMILES,inhibition
1,COc1ccccc1NC(=O)CCn1cnc2ccccc2c1=O,15.6%
2,Cc1ccc2nc(-c3ccc(Cl)c(NC(=O)c4cccnc4)c3)oc2c1,-1.05%
3,CC(=O)N1CCCc2cc(S(=O)(=O)N3CCCCC3)ccc21,-12.9%
4,CCOc1ccccc1CNC(=O)c1cc2c(=O)n(Cc3ccccc3)ccc2nc1C,-6.21%
5,CCOc1ccc(NC(=O)CSc2nccn2-c2cccc(C)c2C)cc1,1.87%
6,CN(C(=O)c1cc2c(=O)oc3ccccc3c2s1)c1ccc(F)cc1,12%
7,c1ccc(Cc2nnc(SCc3nc(-c4cccs4)no3)n2-c2ccccc2)cc1,-13.6%
8,Cc1c(C)c2cc(Cl)c(O)c(CN(C)C)c2oc1=O,active: 35.2%
9,COc1ccc(C(=O)Nc2cc(C(C)C)c(O)c(S(=O)(=O)c3ccc(OC)cc3)c2C)cc1,-4.93%
10,COc1ccc(S(=O)(=O)c2c(Nc3ccc(F)cc3)sc(C(=O)c3ccc(C)cc3C)c2N)cc1,-15.5%
11,O=c1c2oc3ccccc3c2n(Cc2cccc(F)c2)c(=O)n1Cc1ccco1,0.226%
12,COc1cccc(NC(=O)c2sc3nc(C)c(C(=O)Nc4ccc(C)cc4C)c(-c4sccc4C)c3c2N)c1,0.507%
13,COc1ccccc1CNC(=O)C1CCN(S(=O)(=O)c2ccc(N3CCCC3=O)cc2)CC1,active: 36.8%
14,CC(C)c1ccc2oc(-c3cc(NC(=O)c4cccs4)ccc3Cl)nc2c1,-0.392%
15,CCOc1ccccc1CNC(=O)C1CCN(C2=NS(=O)(=O)C(c3ccc(C)c(C)c3)=C2C)CC1,12.5%
16,COc1ccc(OC)c(NC(=O)Cn2cnc3sc(C)c(S(=O)(=O)N4CCN(c5ccccc5OC)CC4)c3c2=O)c1,3.77%
17,COc1ccc(NC(=O)c2ccc3c(=O)n4nc(Nc5cc(C)ccc5C)sc4nc3c2)cc1,11.3%
18,CCCN(C(=O)c1nn(-c2ccc(OC)c(Cl)c2)c(=O)c2c1c1ccccc1n2C)c1ccccc1F,2.06%
19,CCOC(=O)C1CCCN(C(=O)c2ccccc2SCCOC)C1 (configuration not stated),active: 30.3%
20,CCOc1ccc(C(=O)NCCc2csc(-c3ccc(C(F)(F)F)cc3)n2)cc1OCC,8.54%
21,COc1ccc(C(=O)N2CCC(c3nc4ccccc4o3)CC2)cc1,2.2%
22,Cc1ccc([C@H]2Nc3ccc(S(=O)(=O)Nc4cccc(Cl)c4C)cc3[C@H]3C=CC[C@H]32)cc1,-9.19%
23,CCC1CCCCN1CC(=O)c1c(C)[nH]c2cc(C)ccc12 (configuration not stated),active: 32.9%

row,SMILES,inhibition
1,CCn1cc(CCC(=O)NCc2ccc(F)cc2)c2ccccc21,-19.7%
2,Cc1ccc(Nc2nnc(-c3ccc(C)c(S(=O)(=O)N4CCN(C)CC4)c3)c3ccccc23)c(C)c1,-16.6%
3,Cn1c(C(=O)NCCCN2CCN(c3ccccc3F)CC2)cc2c(=O)n(C)c3ccccc3c21,active: 97.8%
4,O=C(NCCc1cnc[nH]1)Nc1cccc(C(F)(F)F)c1,active: 40.2%
5,CC1=C(C(=O)Nc2cccnc2)C(c2cccc(O)c2)n2nc(SCc3ccccc3)nc2N1 (configuration not stated),8.56%
6,Cc1cc(C)c(Cn2c(CCNC(=O)c3ccco3)nc3ccccc32)c(C)c1,-11.2%
7,CCCn1c(=O)n(-c2cc(Cl)c(OC)cc2OC)c(=O)c2c3c(sc21)CN(C(C)=O)CC3,22.2%
8,COc1ccc(NC(=O)Cn2cc(S(=O)(=O)c3ccc(C)cc3)c(=O)c3ccccc32)cc1OC,-28%
9,CCOc1ccccc1Nc1nc(-c2cccc(Cl)c2)c2c(n1)-c1ccccc1OC2,3.61%
10,Cc1ccc(CSCC(=O)NCc2ccc(F)cc2)cc1,-6.61%
11,COc1ccc(-c2noc(-c3ccc(NCc4ccco4)c([N+](=O)[O-])c3)n2)cc1,-9.18%
12,CCOC(=O)c1cccc(NC(=O)CCc2c(C)nc3cc(-c4ccc(Cl)cc4)nn3c2C)c1,3.26%
13,O=C(CCCn1c(=O)c2cccn2c2ccc(F)cc21)NCCc1ccccc1,2.21%
14,Cc1ccc(Cl)cc1NC(=O)Nc1c(C)n(C)n(-c2ccccc2)c1=O,-3.42%
15,CCOC(=O)CSc1nc2ccc(NC(=O)c3ccc(F)cc3)cc2s1,17.2%
16,CCc1ccc(Oc2nc3c(C)cccn3c(=O)c2/C=C(\C#N)c2nc3ccccc3[nH]2)cc1,-3.95%
17,COc1ccc(NC(=O)c2sc3nc4c(cc3c2N)CN(C(C)C)CC4)c(OC)c1,-5.78%
18,COc1cc(-c2noc(CSc3nc(-c4ccccc4)cc(=O)[nH]3)n2)cc(OC)c1OC,-2.74%
19,Cc1cccc(C(=O)NCC(c2ccc3c(c2)OCO3)N2CCN(c3ccccc3F)CC2)c1 (configuration not stated),20.6%
20,Cc1ccc(-n2nc(C)c3c(C)cc(=O)n(CC(=O)Nc4ccc(Br)cc4F)c32)cc1,5.82%
21,COc1ccc(S(=O)(=O)c2c(Nc3ccc(C)cc3)sc(C(=O)c3ccc(C)cc3)c2N)cc1,0.382%
22,Cn1c(CCN2CCCCC2)nc2cc(NS(=O)(=O)c3ccc(F)cc3)ccc21,active: 32%
23,COc1ccc(-c2ccc(CNc3ccc4[nH]c(=O)[nH]c4c3)o2)cc1Cl,-14.4%
